This assay deals with human mesothelin (recombinant, soluble) (human) (UniProt Q13421). As to the kind of experiment: SPR BIAcore, captured mAb, mesothelin analyte.

These results are taken from US20210238304A1.

A number of entries come with more than one value. Only these are listed. The source may hold further records. Values given together seem to repeat one measurement (runs, samples, wells or individuals).

Chain of UniProt Q13421 (Q13421 other isoform, or with tags, fused parts or gaps limits assumed): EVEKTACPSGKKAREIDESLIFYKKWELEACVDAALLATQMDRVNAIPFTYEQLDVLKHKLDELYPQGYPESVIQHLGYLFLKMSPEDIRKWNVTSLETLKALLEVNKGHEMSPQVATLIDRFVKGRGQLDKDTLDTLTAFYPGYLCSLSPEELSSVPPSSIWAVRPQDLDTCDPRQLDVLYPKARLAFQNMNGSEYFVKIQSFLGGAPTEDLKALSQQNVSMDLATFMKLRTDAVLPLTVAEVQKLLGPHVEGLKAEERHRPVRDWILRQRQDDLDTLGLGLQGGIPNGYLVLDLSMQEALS

B1: 201C15 (rabbit-human chimeric anti-human mesothelin antibody) (antibody, from another filing, V domains shown)
VH: QSVKESGGRLVTPGTPLTLTCTVSGIDLSSYAMGWFRQAPGKGLEYIGTINIGGRVYYASWAKGRFTISRTSTTVDLKAPSLTAEDTATYFCARYYNGGSYDIWGPGTLVTVSL
VL: DVVMTQTPASASEPVGGTVTIKCQASESIYRVLAWYQQKPGQPPKLLIYDTSTLASGAPSRFKGSGYGTEFTLTISGVQCEDAATYYCQGGYYADSYGIAFGGGTEVVVKR
In the case of B1, the kon is 274000 M⁻¹ s⁻¹ and 2.6e+06 M⁻¹ s⁻¹ [lines of one column].
